Data published in the antibiotic and cytotoxicity screens of Wong et al. (2023).
The other results are listed elsewhere or left out.

What was measured:
[1] = tested on: HSkMC (human skeletal muscle cells); test: cytotoxicity call (relative viability < 0.9); details: 10 µM
[2] = tested on: HepG2; test: cytotoxicity call (relative viability < 0.9); details: 10 µM
[3] = tested on: S. aureus RN4220; test: growth inhibition call (relative growth <= 0.2); details: 50 µM

Structure (SMILES) | cytotoxicity call [1] | cytotoxicity call [2] | growth inhibition call [3]
COc1ccccc1-c1ccc2c(c1)O[C@H](CN(C)S(=O)(=O)c1ccccc1)[C@@H](C)CN([C@H](C)CO)S2(=O)=O | inactive | inactive | inactive
Oc1cc(O)c2cc(O)c(-c3ccc(O)c(O)c3)[o+]c2c1.[Cl-] | inactive | inactive | inactive
CC[C@@]1(C)N[C@H](C(=O)O)CS1 | inactive | inactive | inactive
O=C(C[C@@H]1C[C@@H]2c3cc(NS(=O)(=O)c4ccccc4)ccc3O[C@@H]2[C@H](CO)O1)NC1CCCCC1 | inactive | inactive | inactive
Cc1ccc(S(=O)(=O)N(C)C[C@@H]2OCCCC[C@@H](C)Oc3ccc(NC(=O)C4CCCCC4)cc3C(=O)N([C@@H](C)CO)C[C@@H]2C)cc1 | inactive | inactive | inactive
O=C(O)P(=O)(O)O | inactive | inactive | active
COCC(=O)Nc1ccc2c(c1)C(=O)N(C)C[C@@H](OC)[C@H](C)CN(Cc1ccccc1F)[C@@H](C)CO2 | inactive | inactive | inactive
C[C@H]1CN([C@@H](C)CO)C(=O)c2cc(NC(=O)C3CC3)ccc2O[C@@H]1CN(C)Cc1ccc2c(c1)OCO2 | inactive | inactive | inactive
COc1ccc(NC(=O)Nc2ccc3c(c2)CC(=O)N([C@@H](C)CO)C[C@@H](C)[C@H](CN(C)CC2CCCCC2)O3)cc1 | inactive | active | inactive
C[C@@H]1CN([C@H](C)CO)C(=O)Cc2cc(NC(=O)Cc3ccccc3)ccc2O[C@H]1CN(C)S(=O)(=O)c1ccc(F)cc1 | inactive | inactive | inactive
Cc1cccc(S(=O)(=O)N2C[C@H](O)COC[C@@H]3O[C@@H](CC(=O)NCc4ccc5c(c4)OCO5)CC[C@H]32)c1 | inactive | inactive | inactive
COc1ccc([Si](C)(C)[C@@H]2[C@@H](CCn3cc([C@H](O)c4ccccc4)nn3)O[C@]3(C(=O)N(Cc4cccc(N5CCOC5=O)c4)c4ccccc43)[C@H]2C)cc1 | inactive | inactive | inactive
C[C@H]1C[C@@](N)(C(=O)O)C1 | inactive | inactive | inactive
COCCOC(=O)N1C(=O)[C@@]2(c3cc(C#CCNC(N)=O)ccc31)[C@H](c1ccc(O)cc1)N1[C@H](c3ccccc3)[C@H](c3ccccc3)OC(=O)[C@H]1[C@@H]2C(=O)N1CCc2cc(OC)c(OC)cc2C1 | inactive | inactive | inactive
C[C@@H]1CN([C@H](C)CO)C(=O)c2cc(NS(=O)(=O)c3ccc(F)cc3)ccc2O[C@@H](C)CCCCO[C@H]1CN(C)C(=O)C1CCCCC1 | inactive | inactive | inactive
Nc1nc(F)nc2c1ncn2[C@@H]1O[C@H](CO)[C@@H](O)[C@H]1O | active | active | inactive
O=C(O)c1nn(Cc2ccccc2)nc1C(=O)O | inactive | active | inactive
C[C@H](CO)N1C[C@H](C)[C@@H](CN(C)CC2CC2)OCCCC[C@H](C)Oc2ccc(NS(=O)(=O)c3ccc(Cl)cc3)cc2C1=O | inactive | inactive | inactive
C=CCC[C@@H](Cc1ccc(F)cc1)C(=O)OC[C@@H](NC(=O)[C@H](CC=C)CC(=O)N(CCO)Cc1ccccc1)C(C)(C)C | inactive | inactive | inactive
C[C@@H]1CN([C@@H](C)CO)C(=O)c2cc(NC(=O)Nc3cccc4ccccc34)ccc2O[C@@H](C)CCCCO[C@H]1CN(C)C(=O)C1CCCCC1 | inactive | inactive | inactive
OCC1OC(OCC2OC(O)C(O)C(O)C2O)C(O)C(O)C1O (stereo not drawn) | inactive | inactive | inactive
C[C@@H]1CCCCO[C@@H](CN(C)CC2CCCCC2)[C@@H](C)CN([C@@H](C)CO)C(=O)c2cc(NS(=O)(=O)c3cccs3)ccc2O1 | inactive | inactive | inactive
CCCCC/C=C\C/C=C\CCCCCCCC(N)=O | inactive | inactive | inactive
C[C@H]1CCCCO[C@@H](CN(C)C(=O)c2ccncc2)[C@@H](C)CN([C@@H](C)CO)C(=O)c2cc(NS(=O)(=O)c3cn(C)cn3)ccc2O1 | inactive | inactive | inactive
CS(=O)(=O)N1C[C@@H](O)COC[C@H]2O[C@@H](CC(=O)NCc3ccccc3)CC[C@@H]21 | inactive | inactive | inactive
COc1ccc(NC(=O)Nc2cccc3c2O[C@H](CN(C)Cc2ccc(-c4ccccc4)cc2)[C@H](C)CN([C@@H](C)CO)C3=O)cc1 | inactive | active | inactive
